In the supplement of paper PMC11417369:
This is one part of the list.

test system: PfSIP2 AP2 domain 1 (GST-tagged); assay: gcPBM binding intensity (ln(normalized median fluorescence intensity)); higher = stronger DNA binding
How it was run: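 Binding intensity is defined as the maximum Masliner-normalised natural-log median intensity across replicate spots for either probe orientation. It was measured on an Agilent 4 × 180k array of primer-extended double-stranded 36-bp intergenic genomic probes and negative controls, to which GST-tagged P. falciparum DNA-binding domains made in E. coli were applied for 1 h in 1× PBS with 1% milk, 0.2 mg/ml BSA, 0.5% salmon testes DNA and 0.03% Triton X-100. Detection was by Alexa488 anti-GST antibody and scanning at 488 nm.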

Row | Sequence | gcPBM binding intensity (ln)
1 | ATATGCTTATATTATATATATAAGTCTATATATTTT [XGTACX_negctrl_site349] | 6.78
2 | TTAAAATAGGGCGAAGAAATTTTCTGTAAACATTTG [CACACA_negctrl_site1010] | 6.67
3 | GGGTTTTTAAAATGTAGTACATATGTAAACATCAAA [XGTACX_site1262] | 7.5
4 | CATAAATAAGCTTTAGTGCATTATATTTAAATTTTT | 7.29
5 | AACATCTCATATCGTACTACACTCATATATATATAT [XGTACX_site170] | 9.38
6 | ATAAAATGAACCTTTTGTACATATATATATATATAT [XGTACX_site4610] | 9.34
7 | ATATTATATATATATAAACACACAAATATTTTTATA [CACACA_site8486] | 7.4
8 | TGAATATTTCTATATACACACATATATATATATATA [CACACA_site3451] | 9.63
9 | TTTAATAATAATAAAAGTACACAAATATAAAGGAAA [XGTACX_site5203] | 7.15
10 | AGGTTTTCTTAAATAGTGCATTATAACAAAAATAAA | 9.66
11 | TCACGTATGTATATTACACACATACATATTATTCAC [CACACA_site4276] | 7.09
12 | CTTTTATTCAAAAGATGTACTTAAATATATATCTAA [XGTACX_site4326] | 7.17
13 | TGCAGTCTGGAGAAACGTACACAGTATCTGGTAACA [XGTACX_site2014] | 6.84
14 | ATGTGTATAATTAAATGTACATATATATATATATAT [XGTACX_site829] | 9.56
15 | ATATATATCGGACACACACACATGTTTTAAAACTAT [CACACA_site4218] | 7.51
16 | ATTTGAAATTGGTAGACACACAATAAAATATCAAAA [CACACA_site447] | 6.79
17 | AAAAAGTTATTATGAACACACATTTATTATAGTCAT [CACACA_site6838] | 6.81
18 | CATATAAATATTTGTGCACACAATTATTAATAATTA [CACACA_site3884] | 9.35
19 | TTAAACTTGAGACACACACACACACGGATATAAAAA [CACACA_site6495] | 7.19

Row | Sequence | gcPBM binding intensity (ln)
20 | TATATATTTATTTATAGTACACTATTTATGAAAACC [XGTACX_site3062] | 7.33
21 | CATTATTATTAACATACACACGTGTTATATACCCCC [CACACA_site9365] | 8.48
22 | TAACATAAATTTAGGAGTACACTTTTTATACATACA [XGTACX_site4066] | 7.08
23 | AAATTCACAATGTTTGGTACACATAAAAAAAAAAGA [XGTACX_site7109] | 7.04
24 | AAAAATTTTTTTTTTTTTTTAAATAATAAAAATGAA [CACACA_negctrl_site1435] | 6.78
25 | TATTATTATTTTATGGTGCAAAAAAAAAAAAAAAAA | 10.6
26 | AACATACGACAATACGCACACATATCTGTACATATT [CACACA_site5115] | 7.15
27 | AATAAAATGGAATACGGTACACATAATCCTAAAATG [XGTACX_site926] | 6.95
28 | ATATTATAAAATAAAAGTACACAATTATATATATAT [XGTACX_site8812] | 8.6
29 | TATTTTTAAAATTAAATGAATAAATAAATAAATATA [XGTACX_negctrl_site553] | 6.77
30 | TATCACTATAGACAAGCATGCATATGTACTAATATC [TGCATGCA_site1020] | 7.1
31 | ATAAAAATAAACATACGTACTTACACGAATATACAT [XGTACX_site5989] | 7.09
32 | CTTGAAAAAATAAAAACACACAATGTGTTTTTGAAT [CACACA_site3283] | 6.66
33 | TTAGATTTAAATATCATACACACTTTATATATAATA [CACACA_site959] | 6.88
34 | ATATTACTATATTATTGTACGTTAAAAAAAAAAAAT [XGTACX_site8734] | 7.11
35 | TTTCTAAATAATTATAATGAATCTGCAAACAAGCAT [XGTACX_negctrl_site391] | 6.8
36 | AATAAATAAATAAATAAATATATATATATATATATA [GTGCAC_negctrl_site224] | 9.48
37 | TTATATTAAAAAAGATGTACGTTTAGGAAAAATATA [XGTACX_site7456] | 7
38 | TGTATATATATCTCAGTGCATTGCAAATTAAAAATT [GTGCAC_site9646] | 8.16

Row | Sequence | gcPBM binding intensity (ln)
39 | ATACTCACGTGACACACACACAATATAAATAAATAT [CACACA_site7862] | 7.27
40 | GGCTTTTTTTAATATGCACACATATATTTTATATAT [CACACA_site8647] | 7.54
41 | TATAATAATCTAATCTGTAGTTTTTTTTTTTTTTTT [CACACA_negctrl_site1206] | 7.31
42 | AAAAAAAAACAGAAAACACACAAATTATCTTATAAT [CACACA_site4326] | 6.75
43 | AGCACACAAAAAAAAAAAAAAAAAAAAAAAGGAATG [GTGCAC_negctrl_site73] | 6.94
44 | TATGTATTCATATGTTGTACATTATATATAATAAGT [XGTACX_site6589] | 7.36
45 | AAATCAGAACCTATTTGTACATATACAAAAATGATT [XGTACX_site2421] | 6.68
46 | TTTTAATTAGCTAGACGTACAATAATATACAAATAT [XGTACX_site6068] | 7.51
47 | CATATGTAGGGAACAATATAATATGCTTTGAATATG [GTGCAC_negctrl_site524] | 6.87
48 | ATTTTTTTAAGATAAGAAAAATAAAGTGTGGATATT [XGTACX_negctrl_site476] | 7.22
49 | TTCCTTATTATTATTTTACACACGTCCTAATAAGAG [CACACA_site8364] | 7.09
50 | GCTTGTACATTTTTAAAAAATGACTTCGAAAGGAAT [CACACA_negctrl_site453] | 7.39
51 | TTTATGCATAGAGAAACATGCAAGAAAGATGCAAAA [TGCATGCA_site726] | 7.32
52 | ATTATGTATACATAAACACACATATTTATAAAAAAA [CACACA_site6261] | 7.15
53 | ATATATTTATATATATGTACATATTATGTTAAGAAA [XGTACX_site1111] | 7.04
54 | TTAATATGAAATAAATGTACATAATACATAATAAAA [XGTACX_site6194] | 6.87
55 | GTTTTTAGTATTTTTTGTACTTAATACATAGCCTTA [XGTACX_site7318] | 6.85
56 | AATTGAAAAATATATAAGAAGAAATATATATATGTT [GTGCAC_negctrl_site97] | 6.95
